The source of these data is paper PMC4336329 (PLoS ONE, 2015).

Hit rate of the full screen: of about 310,000 compounds, about 2,200 (0.71%) showed an effect of 50% or more. Effects have a minus sign here. The list shows a part of the results.

Sequence of human ether-à-go-go-related gene (hERG) potassium channel (Q12809 whole entry, looked up): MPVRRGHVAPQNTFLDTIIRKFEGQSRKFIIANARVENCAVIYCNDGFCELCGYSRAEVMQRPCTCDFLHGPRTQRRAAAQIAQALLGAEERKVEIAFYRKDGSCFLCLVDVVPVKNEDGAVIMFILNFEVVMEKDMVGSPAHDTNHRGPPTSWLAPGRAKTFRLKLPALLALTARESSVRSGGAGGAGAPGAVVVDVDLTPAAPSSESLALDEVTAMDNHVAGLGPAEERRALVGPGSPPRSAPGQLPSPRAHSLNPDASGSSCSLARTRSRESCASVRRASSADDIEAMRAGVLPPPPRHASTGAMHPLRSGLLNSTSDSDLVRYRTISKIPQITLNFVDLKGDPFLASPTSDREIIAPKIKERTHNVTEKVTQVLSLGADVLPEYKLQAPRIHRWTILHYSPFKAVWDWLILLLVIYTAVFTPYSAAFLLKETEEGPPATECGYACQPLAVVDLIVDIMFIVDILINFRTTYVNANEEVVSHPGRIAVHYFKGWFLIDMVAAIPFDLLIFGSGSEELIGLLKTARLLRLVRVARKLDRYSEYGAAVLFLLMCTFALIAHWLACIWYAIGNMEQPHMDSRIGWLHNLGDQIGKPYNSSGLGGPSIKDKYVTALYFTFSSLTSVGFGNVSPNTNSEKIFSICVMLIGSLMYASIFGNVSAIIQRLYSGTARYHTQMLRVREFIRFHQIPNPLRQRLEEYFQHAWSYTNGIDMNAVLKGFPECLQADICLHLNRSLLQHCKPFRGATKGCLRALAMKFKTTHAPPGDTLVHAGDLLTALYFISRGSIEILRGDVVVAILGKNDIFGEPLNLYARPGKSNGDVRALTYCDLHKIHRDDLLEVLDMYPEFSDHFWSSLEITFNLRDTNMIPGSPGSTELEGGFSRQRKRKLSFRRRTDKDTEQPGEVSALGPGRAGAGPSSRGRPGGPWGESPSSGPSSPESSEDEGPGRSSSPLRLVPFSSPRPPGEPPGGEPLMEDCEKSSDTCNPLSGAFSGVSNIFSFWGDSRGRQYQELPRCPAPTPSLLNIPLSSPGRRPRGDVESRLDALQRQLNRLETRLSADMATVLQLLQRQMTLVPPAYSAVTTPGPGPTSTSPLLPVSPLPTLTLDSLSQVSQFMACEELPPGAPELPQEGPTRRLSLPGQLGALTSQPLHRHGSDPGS

The assay concerns the target human ether-à-go-go-related gene (hERG) potassium channel (human, UniProt Q12809). Briefly: primary screen, population patch clamp on CHO cells stably expressing hERG.
With `CC(=O)Cn1nnc2sc(-c3ccccc3)cc2c1=O`, the “hERG current change (%, negative = inhibition) at 1uM” value is 11.3%. The same measure for `O=C(NCc1cccc(C(F)(F)F)c1)C1CCC(=O)N(C2CCCCCC2)C1` (stereo not shown): 6.37%; for `O=C(CC1C(=O)NCCN1Cc1cccc(C(F)(F)F)c1)NC1CCCCCC1` (stereo not shown): 7.17%; for `C(=C\CSc1ncn[nH]1)/CSc1ncn[nH]1`: 2.44%. The same measure for `COC(=O)c1cn(-c2nc(C)c3c(n2)CCC3)nn1`: 4.76%; for `O=C(NCCCN1CCOCC1)c1ccc2nc(Cc3cccc(Cl)c3)oc2c1`: 3.29%. The value for `O=C(CC(Nc1ccc(F)cc1)C(=O)O)c1ccccc1` (stereo not shown) was 15.5%. On to `COc1cc(NC(=S)Nc2ccccn2)cc(OC)c1`, for which the “hERG current change (%, negative = inhibition) at 1uM” value came to 3.52%. With `O=C(CSc1nnc(C2CC2)n1CC1CCCO1)Nc1ccc(Cl)cc1` (stereo not shown), the “hERG current change (%, negative = inhibition) at 1uM” value is given as -18.5%. The same measure for `COc1ccc(OC)c(NC(=O)C(=O)N/N=C/c2ccccc2[N+](=O)[O-])c1`: 8.29%; for `O=S(=O)(NCCCSc1ccccc1)c1ccccc1F`: -47.3%. As for `CN(C)C(C(=O)Nc1cc(Cl)cc(Cl)c1)c1ccccc1` (stereo not shown), the “hERG current change (%, negative = inhibition) at 1uM” value was 9.54%.

With `COc1cc(OC)cc(C(=O)NN(CCC#N)C2=NS(=O)(=O)c3ccccc32)c1`, the “hERG current change (%, negative = inhibition) at 1uM” value was found to be 15.5%. Consider `C=CCOC(=O)/C=C/C(=O)NC(N)=O`, for which the “hERG current change (%, negative = inhibition) at 1uM” value was determined as 13.1%. The same measure for `CCOC(=O)C(/C(N)=N/C(=O)Nc1ccccc1)=C(\C)O`: 12.1%. The value for `O=C(CCNC(=O)c1ccc(Br)cc1)Nc1cccc(S(=O)(=O)N2CCCC2)c1` was 7.02%; that for `O=C(Oc1cccc(N2C(=O)CCC2=O)c1)C1CC(=O)N(c2ccc(Br)cc2)C1` (stereo not shown) was 7.95%.

`Cc1ccccc1NC(=O)C(C)SCc1ccccc1` (stereo not shown): the “hERG current change (%, negative = inhibition) at 1uM” value is recorded as 1.66%. The same measure for `CSc1ccc(C2NN=C(c3ccccc3)S2)cc1` (stereo not shown): -13.9%; for `COc1ccc(C=C2C=C(C(C)(C)C)C(=O)C(C(C)(C)C)=C2)cc1OC`: 16.1%; for `COc1ccc(NC(=O)CN(C)C(=O)CNC(=O)c2sc3ccccc3c2Cl)cc1`: -12%.

As for `Cc1cc([N+](=O)[O-])ccc1NC(=O)CSc1nncn1-c1ccccn1`, the “hERG current change (%, negative = inhibition) at 1uM” value was -3.56%. For the compound `Cc1ccc(-n2c(C)c3c(C)nnc(C)c3c2C)cc1C`, the “hERG current change (%, negative = inhibition) at 1uM” value is recorded as -4.79%.

In the case of `CC(C)Cn1c(N)c(C(=O)NCC2CCCO2)c2nc3ccccc3nc21` (stereo not shown), the “hERG current change (%, negative = inhibition) at 1uM” value was determined as 6.47%. `COc1ccc(C(=O)NC(=S)Nc2ccccc2F)cc1`: the “hERG current change (%, negative = inhibition) at 1uM” value turned out to be 9.05%.

As for `Cc1ccc(NC(=O)CSC(C)C(=O)OC(C)C(=O)NC2CCCCC2C)cc1` (stereo not shown), the “hERG current change (%, negative = inhibition) at 1uM” value is -2.33%. As to `CC(C(=O)N/N=C/c1ccc(N(C)C)c(Br)c1)N(c1ccccc1)S(C)(=O)=O` (stereo not shown), the “hERG current change (%, negative = inhibition) at 1uM” value came out at 12%. As for `CCN1CCN(S(=O)(=O)Cc2ccccc2Cl)CC1`, the “hERG current change (%, negative = inhibition) at 1uM” value was found to be 14.6%.

Regarding `CC(=O)c1c(C)[nH]c(C(=O)COc2ccc3c(C)cc(=O)oc3c2)c1C`, the “hERG current change (%, negative = inhibition) at 1uM” value is on record as 17.2%. The value for `CCOc1ccc(NC(=O)Nc2cccn(Cc3ccccc3)c2=O)cc1` was 12.1%; that for `CC(C)(C)c1csc(NC(=O)Cc2cccs2)n1` was 11.2%. Turning to `O=C(O)CCCNC(=O)CC1S/C(=N/N=C/c2ccccc2O)NC1=O` (stereo not shown), the “hERG current change (%, negative = inhibition) at 1uM” value stood at 16.9%. For `Cc1nn(C)c(C)c1NC(=O)CCSc1nc(-c2ccco2)cc(C(F)(F)F)n1`, the “hERG current change (%, negative = inhibition) at 1uM” value is listed as 8.03%. As for `COc1cccc(CC(=O)OCC(=O)NNC(=O)c2ccc(Br)cc2)c1`, the “hERG current change (%, negative = inhibition) at 1uM” value was 5.5%.

As to `O=[N+]([O-])c1ccc(Nc2cccc(F)c2)nc1`, the “hERG current change (%, negative = inhibition) at 1uM” value is recorded as 18.1%. For the compound `Cc1cccc(-n2nnc(C(=O)NCc3ccccc3)c2N)c1`, the “hERG current change (%, negative = inhibition) at 1uM” value is recorded as 7.4%. Take `FC(F)Oc1ccc(/C=N/NC(=S)Nc2cc(C(F)(F)F)ccc2Cl)cc1`: the “hERG current change (%, negative = inhibition) at 1uM” value is recorded as 10.4%.

In the case of `CCN1CCN(Cc2cc(=O)oc3cc(C)cc(C)c23)CC1`, the “hERG current change (%, negative = inhibition) at 1uM” value was -45%. For the compound `COc1ccc(-c2cc(=O)oc3c(C)c(O)c(CN(C)C)cc23)cc1`, the “hERG current change (%, negative = inhibition) at 1uM” value worked out at 6.02%.

`CC(C)CNc1nc(N)c([N+](=O)[O-])c(NCC2CCCO2)n1` (stereo not shown): the “hERG current change (%, negative = inhibition) at 1uM” value amounted to 2.3%. The same measure for `CCc1ccc(/C=N/NC(=O)c2cc(-c3ccncc3)nc3ccccc23)s1`: 12.1%. The same measure for `CCOc1ccc2nc(SCC(=O)Nc3nonc3C)[nH]c2c1`: 6.98%. The value for `O=C(Nc1nc2c(Cl)ccc(Cl)c2s1)c1ccco1` was 13.4%. Turning to `O=C1CS/C(=C\[N+](=O)[O-])N1c1ccc(OC(F)(F)F)cc1`, the “hERG current change (%, negative = inhibition) at 1uM” value came to 8.61%.

In the case of `C=CCNc1cc(N2CCCC2)ccc1[N+](=O)[O-]`, the “hERG current change (%, negative = inhibition) at 1uM” value was 6.9%.

In the case of `Cc1ccc(NC(=S)N2CCC(c3ccc(C)cc3)C2)cc1` (stereo not shown), the “hERG current change (%, negative = inhibition) at 1uM” value came out at 5.38%.

`Cc1cc(NC(=O)CCC(=O)N(c2ccccc2)C(C)C(=O)NC2CCCC2)no1` (stereo not shown): the “hERG current change (%, negative = inhibition) at 1uM” value is given as 8.55%. `CCN=c1sc2ccccc2n1CC(O)COc1ccccc1` (stereo not shown): the “hERG current change (%, negative = inhibition) at 1uM” value stood at 5.32%. `Cc1ccc(OCCOC(=O)c2sc(=S)n(C)c2C)cc1`: the “hERG current change (%, negative = inhibition) at 1uM” value was determined as 11.9%. In the case of `COC(=O)CCCNC(=O)c1ccc2oc(CCCc3ccccc3)nc2c1`, the “hERG current change (%, negative = inhibition) at 1uM” value amounted to 7.86%. For the compound `Cn1c(SCC(=O)NC2CCCC2)nnc1-c1ccncc1`, the “hERG current change (%, negative = inhibition) at 1uM” value is 16.7%. The value for `CC(=O)Oc1ccc(N2C(=O)C3C4C=CC(O4)C3C2=O)cc1` (stereo not shown) was 22.8%; that for `CN(C(=O)CO/N=C/c1ccc(OC(F)F)cc1)C1CCS(=O)(=O)C1` (stereo not shown) was -32.9%.

As to `COCCNC(=O)COc1ncnc2scc(-c3ccc(F)cc3)c12`, the “hERG current change (%, negative = inhibition) at 1uM” value turned out to be 9.63%. Take `Cc1cc(N2CCN(C(c3ccccc3)c3ccccc3)CC2)n2ncnc2n1`: the “hERG current change (%, negative = inhibition) at 1uM” value turned out to be 8.18%. `O=C1C2C3C=CC(C2C(=O)N1c1ccc(O)cc1)C1C2C(=O)N(c4ccc(O)cc4)C(=O)C2C31` (stereo not shown): the “hERG current change (%, negative = inhibition) at 1uM” value is -8.85%. Consider `CC(=O)Nc1ccc(S(=O)(=O)NC2(C(F)(F)F)NC(=O)N(c3ccc(C)cc3)C2=O)cc1` (stereo not shown), for which the “hERG current change (%, negative = inhibition) at 1uM” value was 9.35%. On to `CCCOc1ccc(CC(=O)NCCc2ccccc2)cc1OC`, for which the “hERG current change (%, negative = inhibition) at 1uM” value was determined as 11.4%. Regarding `CC(=O)NC(Cc1ccc(F)c(F)c1)C(=O)NC1CCN(C(=O)c2ccc(Cl)cc2)CC1` (stereo not shown), the “hERG current change (%, negative = inhibition) at 1uM” value came out at 11.5%.

For the compound `O=C(COC(=O)c1ccc(Cl)c(S(=O)(=O)N2CCCCCC2)c1)Nc1ccccc1`, the “hERG current change (%, negative = inhibition) at 1uM” value turned out to be 16.3%. The same measure for `Cc1nn(-c2ccccc2)c(C)c1-c1ccccc1O`: 12.8%. The value for `COC(=O)c1ccccc1N1C(=O)[C@@H]2C(c3ccc(F)cc3)=NO[C@@H]2C1=O` was 4.26%; that for `COc1ccccc1NC(=O)c1ccc(NC(=O)CSc2ncn[nH]2)cc1` was 20.1%; that for `COc1ccc(C2C(=O)N(C3CCCCC3)CC(=O)N2Cc2ccco2)cc1` (stereo not shown) was -21.2%. On to `N#Cc1c(-c2ccc(Cl)cc2)ccn2nc(CCC(=O)O)nc12`, for which the “hERG current change (%, negative = inhibition) at 1uM” value is 16.1%. Turning to `CCCCc1ccc(/C(C)=N/NC(=O)C2CCCC2)cc1`, the “hERG current change (%, negative = inhibition) at 1uM” value stood at 9.44%. The value for `CCOc1ccc(-n2c(Cc3cc(=O)[nH]c(=O)[nH]3)nnc2SCC(N)=O)cc1` was -0.0858%. Take `O=C1NC(=O)N(c2ccccc2)C(=O)/C1=C\c1ccc([N+](=O)[O-])o1`: the “hERG current change (%, negative = inhibition) at 1uM” value was 5.54%.

With `CCOC(=O)c1c(S(=O)(=O)NCC(=O)N2CCN(c3ccc(OC)cc3)CC2)c(C)n(C)c1C`, the “hERG current change (%, negative = inhibition) at 1uM” value was 14.6%.

As for `CCOc1ccc(NC(=O)CN(C)C(=O)c2ccc(NC3CC3)c([N+](=O)[O-])c2)cc1OCC`, the “hERG current change (%, negative = inhibition) at 1uM” value is given as -18.3%. For `O=C(CCNS(=O)(=O)c1cccc2nsnc12)Nc1ccc2c(c1)OCCO2`, the “hERG current change (%, negative = inhibition) at 1uM” value worked out at 12%. As for `CC(C)=CCSc1nnc(CCNC(=O)OC(C)(C)C)o1`, the “hERG current change (%, negative = inhibition) at 1uM” value is -33.9%. As to `Cc1ccc(CSC2=CS(=O)(=O)c3ccccc3N2)cc1`, the “hERG current change (%, negative = inhibition) at 1uM” value is reported as 7.13%. As to `COCCNC(=O)CN(C(=O)Cn1nnc2ccccc21)c1ccc(F)c(Cl)c1`, the “hERG current change (%, negative = inhibition) at 1uM” value was determined as 4.93%. The same measure for `COCCn1c(=O)[nH]c2cc(C(=O)NCCCN3CCN(c4ccc(F)cc4)CC3)ccc2c1=O`: 14.2%; for `CC1CCC(NC(=O)c2ccc(S(C)(=O)=O)cc2)CC1` (stereo not shown): 6.09%; for `CC(C)CNC(=S)NNC(=O)c1ccc(OC(F)F)cc1`: -10.3%.

With `O=C(OC(C(=O)Nc1ccc(Cl)cc1C(F)(F)F)c1ccccc1)C1=COCCO1` (stereo not shown), the “hERG current change (%, negative = inhibition) at 1uM” value is reported as 4.96%. The same measure for `COc1ccc(C=O)cc1CSc1ccccn1`: 10.7%; for `CN1CCN(c2ccc([N+](=O)[O-])c(NCC3CCCO3)c2)CC1.Cl` (stereo not shown): -1.67%.

With `O=C(COC(=O)C1CCC1)NCc1ccc(Cl)cc1Cl`, the “hERG current change (%, negative = inhibition) at 1uM” value is 5.58%. As for `Clc1ccc(-c2ccnc(Oc3ccc4ccccc4c3)n2)cc1`, the “hERG current change (%, negative = inhibition) at 1uM” value is listed as 11.9%.

Turning to `COC(=O)CCC(=O)NNC(=O)c1ccc(Cl)cc1Cl`, the “hERG current change (%, negative = inhibition) at 1uM” value was determined as 14.8%. Consider `C=CCNc1cc(C)oc(=O)c1C(=O)CC`, for which the “hERG current change (%, negative = inhibition) at 1uM” value was 4.45%. The value for `Cc1c(C(O)CN2CCC(C(N)=O)CC2)c2ccccc2n1C` (stereo not shown) was -1.87%. The same measure for `CCOc1cccc2cc(C(=O)NCc3cccnc3)c(=O)oc12`: 5.87%; for `O=C1NCCCc2c1no[n+]2[O-]`: 16.8%; for `Cn1cccc1Cc1nnc(SCC(=O)Nc2ccc(F)cc2)n1CCc1ccccc1`: -6.41%. The value for `O=C(Nc1ccc(OC(F)(F)F)cc1)Nc1cccnc1` was -9.71%. Take `CC(=O)C1=C(O)CCC1=NCCc1ccccc1`: the “hERG current change (%, negative = inhibition) at 1uM” value is reported as 11.9%. As for `S=C(NCCN1CCOCC1)NC1CCCC1`, the “hERG current change (%, negative = inhibition) at 1uM” value came to 9.45%.
